Data from the supplement of paper PMC6089552.
In all, about 3,200 compounds went through this assay and about 300 (9.4%) showed activity. The entries are a selection whose mix differs from that of the whole data set.

Test system: A673/TR/shEF
Test: cell viability (LOESS-normalised, relative to median of negative controls) (log2 ratio); higher = more viable cells (less compound effect), active = hit call of the paper (over 3 MAD below the median)
Details: treatment time: 72 h
Procedure, shortened: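 Doxycycline, present or absent from 24 h before compounds, was used to induce EWS-FLI1 shRNA knockdown in A673/TR/shEF Ewing sarcoma cells at 1,500 per well in 384-well plates. Cells then received library compounds at two or more concentrations, or DMSO controls, for three days. Viability was measured by CellTiter-Glo luminescence on an Envision reader, and per-plate LOESS correction, division by the negative-control median and log2 transformation followed.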

[1] = 0.25 µM, library screen: screen1, EWS-FLI1 expression: high (no doxycycline)
[2] = 0.25 µM, library screen: screen1, EWS-FLI1 expression: low (doxycycline-induced shRNA knockdown)
[3] = 2.5 µM, library screen: screen1, EWS-FLI1 expression: high (no doxycycline)
[4] = 2.5 µM, library screen: screen1, EWS-FLI1 expression: low (doxycycline-induced shRNA knockdown)
[5] = 0.25 µM, library screen: screen2, EWS-FLI1 expression: high (no doxycycline)
[6] = 0.25 µM, library screen: screen2, EWS-FLI1 expression: low (doxycycline-induced shRNA knockdown)
[7] = 2.5 µM, library screen: screen2, EWS-FLI1 expression: high (no doxycycline)
[8] = 2.5 µM, library screen: screen2, EWS-FLI1 expression: low (doxycycline-induced shRNA knockdown)
[9] = 0.103 µM, library screen: screen3, EWS-FLI1 expression: high (no doxycycline)
[10] = 0.103 µM, library screen: screen3, EWS-FLI1 expression: low (doxycycline-induced shRNA knockdown)
[11] = 0.308 µM, library screen: screen3, EWS-FLI1 expression: high (no doxycycline)
[12] = 0.308 µM, library screen: screen3, EWS-FLI1 expression: low (doxycycline-induced shRNA knockdown)
[13] = 0.926 µM, library screen: screen3, EWS-FLI1 expression: high (no doxycycline)
[14] = 0.926 µM, library screen: screen3, EWS-FLI1 expression: low (doxycycline-induced shRNA knockdown)
[15] = 2.8 µM, library screen: screen3, EWS-FLI1 expression: high (no doxycycline)
[16] = 2.8 µM, library screen: screen3, EWS-FLI1 expression: low (doxycycline-induced shRNA knockdown)
[17] = 8.3 µM, library screen: screen3, EWS-FLI1 expression: high (no doxycycline)
[18] = 8.3 µM, library screen: screen3, EWS-FLI1 expression: low (doxycycline-induced shRNA knockdown)
[19] = 25 µM, library screen: screen3, EWS-FLI1 expression: high (no doxycycline)
[20] = 25 µM, library screen: screen3, EWS-FLI1 expression: low (doxycycline-induced shRNA knockdown)

Measured: cell viability (log2)

CC(=O)c1c(C(C)=O)c(C)n(-c2cc(C)cc(C)c2)c1C
inactive: [1] 0.0993 | [2] 0.13 | [3] 0.0722 | [4] 0.0963

O=C(O)c1cc2c(Cl)cc(Cl)cc2[nH]1
inactive: [1] 0.105 | [2] 0.0244 | [3] 0.0763 | [4] 0.0336

CCOC(=O)C1=C(C)NC2=C(C(=O)CC(C)(C)C2)C1c1coc2ccccc2c1=O (configuration not stated)
inactive: [1] 0.113 | [2] 0.123 | [3] 0.0647 | [4] 0.0912

CC(=O)N1CCC[C@H]1C(=O)O
inactive: [1] 0.138 | [2] 0.0212 | [3] 0.184 | [4] 0.0486

CC(C)CCC[C@@H](C)[C@H]1CC[C@H]2C3=CC[C@H]4C[C@@H](O)CC[C@]4(C)[C@H]3CC[C@]12C
inactive: [1] -0.0717 | [2] -0.021 | [3] 0.0758 | [4] 0.0695

COc1cc(-c2coc3cc(O[C@@H]4O[C@H](CO)[C@@H](O)[C@H](O)[C@H]4O)c(OC)c(O)c3c2=O)cc(O)c1OC
inactive: [1] 0.135 | [2] 0.0699 | [3] 0.116 | [4] 0.111

O=c1c(O)c(-c2ccccc2)oc2cc(O)ccc12
inactive: [1] 0.0271 | [2] 0.0324 | [3] 0.0788 | [4] 0.174

C=C1C(=O)OC2CC1C(OC(C)=O)C/C(C)=C/CC/C(C)=C\CCC2(C)O (configuration not stated)
inactive: [1] 0.18 | [2] 0.0249 | [3] 0.0625 | [4] -0.139

OC[C@H]1O[C@@H](Oc2cc(O)cc(/C=C/c3ccc(O)cc3)c2)[C@H](O)[C@@H](O)[C@@H]1O
inactive: [1] 0.0243 | [2] 0.0804 | [3] 0.16 | [4] 0.112

COc1ccc(C2CNC(=O)C2)cc1OC1CCCC1 (configuration not stated)
inactive: [5] 0.146 | [6] 0.0589 | [7] 0.166 | [8] 0.136

O=c1c(O)c(-c2ccc(O)cc2O)oc2cc(O)cc(O)c12
inactive: [1] 0.0874 | [2] 0.0533 | [5] 0.021 | [6] 0.0486 | [3] 0.125 | [4] 0.109 | [7] 0.0594 | [8] 0.0376

CC(/C=C/c1cccc(Oc2ccc(F)cc2)c1)N(O)C(N)=O (configuration not stated)
inactive: [5] 0.185 | [6] 0.0476 | [7] 0.131 | [8] -0.0183

NC(=O)c1ccc([N+](=O)[O-])cc1Cl
inactive: 0.025 µM, library screen: screen2, EWS-FLI1 expression: high (no doxycycline) 0.019 | 0.025 µM, library screen: screen2, EWS-FLI1 expression: low (doxycycline-induced shRNA knockdown) -0.00128 | [5] 0.119 | [6] -0.0311 | [7] 0.142 | [8] 0.0636 | 25 µM, library screen: screen2, EWS-FLI1 expression: high (no doxycycline) 0.166 | 25 µM, library screen: screen2, EWS-FLI1 expression: low (doxycycline-induced shRNA knockdown) 0.067

O=C1OCCN1/N=C/c1ccc([N+](=O)[O-])o1
inactive: [1] 0.0979 | [2] 0.0406 | [3] 0.174 | [4] 0.0262

O=C1NC(=O)/C(=C/c2ccc3nccnc3c2)S1
inactive: [9] -0.0183 | [10] 0.0389 | [11] 0.0582 | [12] 0.0283 | [13] 0.0603 | [14] -0.011 | [15] -0.0177 | [16] -0.0071 | [17] -0.0545 | [18] -0.0391 | [19] 0.0105 | [20] 0.0289

COc1ccc(C(=O)c2ccc(O)cc2O)c(O)c1
inactive: [1] 0.0224 | [2] 0.0701 | [3] 0.116 | [4] 0.108

c1ccc([C@H]2CN3CCSC3=N2)cc1
inactive: 0.025 µM, library screen: screen1, EWS-FLI1 expression: high (no doxycycline) 0.0743 | 0.025 µM, library screen: screen1, EWS-FLI1 expression: low (doxycycline-induced shRNA knockdown) 0.0216 | [9] 0.103 | [10] 0.000516 | [1] 0.0991 | [2] 0.0737 | [5] 0.069 | [6] 0.0838 | [11] 0.127 | [12] 0.0938 | [13] 0.0997 | [14] 0.0447 | [4] 0.0839 | [7] 0.126 | [8] 0.0627 | [15] 0.136 | [16] 0.0913 | [17] 0.12 | [18] 0.085 | 25 µM, library screen: screen1, EWS-FLI1 expression: low (doxycycline-induced shRNA knockdown) -0.0899 | [19] 0.0427 | [20] 0.11
active: [3] -0.0948 | 25 µM, library screen: screen1, EWS-FLI1 expression: high (no doxycycline) -0.295

C=C(c1ccccc1)c1cc(O)c(OC)cc1O
inactive: [1] -0.0139 | [2] -0.00424 | [3] 0.0356 | [4] 0.0603

CN1C[C@H]2c3ccccc3Oc3ccc(Cl)cc3[C@@H]2C1
inactive: [9] -0.0113 | [10] 0.0411 | [11] 0.0363 | [12] 0.0417 | [13] 0.0488 | [14] 0.0231 | [15] 0.0964 | [16] 0.0456 | [17] 0.0132 | [18] 0.0603 | [19] 0.0424 | [20] 0.06

CCC(=O)O[C@]1(C(=O)CCl)[C@@H](C)C[C@H]2[C@@H]3CCC4=CC(=O)C=C[C@]4(C)[C@@]3(F)[C@@H](O)C[C@@]21C
inactive: [1] 0.0718 | [2] -0.281 | [3] 0.136 | [4] -0.439

CN1CCN(c2c(F)cc3c(=O)c(C(=O)O)cn(CCF)c3c2F)CC1
inactive: [9] 0.0583 | [10] 0.0739 | [11] 0.00683 | [12] 0.129 | [13] 0.0814 | [14] 0.0787 | [15] 0.0244 | [16] 0.0887 | [17] 0.0703 | [18] 0.0799 | [19] 0.17 | [20] 0.0882

C[C@H](CCC(=O)O)[C@H]1CC[C@H]2[C@@H]3[C@H](O)C[C@@H]4C[C@H](O)CC[C@]4(C)[C@H]3CC[C@]12C
inactive: [9] 0.151 | [10] 0.163 | [1] 0.126 | [2] 0.0802 | [11] 0.0927 | [12] 0.168 | [13] 0.111 | [14] 0.101 | [3] 0.188 | [4] 0.133 | [15] 0.11 | [16] 0.118 | [17] 0.0766 | [18] 0.106 | [19] 0.0921 | [20] 0.144
